According to PubChem BioAssay AID686979 (National Center for Advancing Translational Sciences (NCATS), 2013):
Out of some 420,000 compounds screened, about 50,000 (12%) were called active. The inconclusive results got no clear call from the source; some entries with a clear call stand among them for comparison. Calls come from the whole dose curve; as a rule, active = well fitted inhibition curve with a large enough effect; inconclusive = small, poorly fitted or top-dose-only effect; inactive = flat fitted curve, though single readings scatter. No potency is given beside an inconclusive call; the fits are too rough.

Test: qHTS for Inhibitors of human tyrosyl-DNA phosphodiesterase 1 (TDP1): qHTS in cells in presence of CPT; note: nearly all actives have a fitted effect of over 55% in size
Conditions: chicken DT40 Tdp1-/-;hTDP1 cells + 20 nM CPT, ATP luminescence, 48 h; activity change, negative = growth inhibition: at 46.2 µM (top of the series)
Method in brief: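 Cell growth measured by CellTiter-Glo luminescence after a minimum 48 h, 37 C compound exposure with 20 nM CPT in Tdp1-knockout DT40 cells stably expressing hTDP1, seeded 400/well; qHTS titration format.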
% is set by controls: 0 for no effect and ±100 for the full control effect; potency is the fitted concentration of half-maximal effect; tags give direction and shape of the fitted curve.

Row | Structure (SMILES) | Potency | activity change, negative = growth inhibition
1 | O=P(c1ccccc1)(c1ccccc1)c1nc(-c2ccccc2)oc1NCc1ccccc1 | inconclusive [inhibitor, single point] | –
2 | FC(F)(F)c1nnc(-c2ccccc2)nc1Oc1ccc(Cl)cc1Cl | inconclusive [inhibitor, single point] | –
3 | CCCCC(C)(O)C/C=C/[C@H]1[C@H](O)CC(=O)[C@@H]1CCCCCCC(=O)OC (some centres not stated) | inconclusive [inhibitor, partial curve] | –
4 | O=[N+]([O-])c1ccc(OCc2cnc(Cl)s2)c([N+](=O)[O-])c1 | inactive | –
5 | O=C1/C(=C\c2ccc(Cl)cc2)CCC1CNc1ccc(Cl)cc1 (configuration not stated) | active: 2.31 µM | –
6 | CCCOC(=O)C(C)n1cnc2scc(-c3ccc(C)cc3)c2c1=O (configuration not stated) | inconclusive [inhibitor, full curve, poor fit] | –
7 | CCOc1ccc(OCC)c(NC(=O)CCCN2C(=S)NC(C)(C)CC2C)c1 (configuration not stated) | active: 16.4 µM | –
8 | COc1cccc(-c2cc(NC(C)=O)c3ncc(-c4cccc(C(C)=O)c4)n3c2)c1 | active: 23.1 µM | –
9 | CC(C)(C)C(=O)Nc1cc(S(=O)(=O)Nc2ccc(Cl)cc2)ccc1O | inactive | –
10 | CC(=O)Nc1ccc2nc(-c3ccccc3)cn2c1 | inactive | –
11 | NC(=O)C1CCN(C(=O)c2ccccc2NC(=O)c2nsc3ccccc23)CC1 | – | inconclusive: -7.35% [inhibitor]
12 | O=C(O)CCC(CNS(=O)(=O)c1ccccc1)C(F)(F)F (configuration not stated) | inactive | –
13 | CN1CCN(c2ccc(-c3cc(NC=O)c4ncc(-c5ccc(F)cc5)n4c3)cc2)CC1 | active: 14.6 µM | –
14 | O=C(c1ccccc1)n1nc(-c2ccccc2)nc1NCc1ccco1 | inactive | –
15 | O=C(CCc1ccccc1)NC1(Cc2ccccc2)CCN(CCc2cccs2)C1=O (configuration not stated) | inconclusive [inhibitor, single point] | –
16 | Cc1ccc(SCC(=O)NNC(=O)C2CCCCC2)cc1 | inconclusive [inhibitor, single point] | –
17 | O=C(/C=C/c1ccc(Br)cc1)NC(=S)NNC(=O)c1ccco1 | inconclusive [inhibitor, single point] | –
18 | CS(=O)(=O)c1ccccc1C(=O)Nc1nc2ccccc2[nH]1 | inactive | –
19 | COC(=O)C(CC(C)C)NC(=O)C(N)Cc1ccccc1 (configuration not stated) | inactive | –
20 | CCOc1cc(CNCCN2CCOCC2)ccc1OCc1ccccc1Cl | inconclusive [inhibitor, single point] | –
21 | COc1ccccc1NCC(O)Cn1c2ccccc2c2ccccc21 (configuration not stated) | inconclusive [inhibitor, single point] | –
22 | COc1ccc(CN2C[C@@H](CO)O[C@@H](n3cnc4c(N(C)C)ncnc43)C2)cc1 | inactive | –
23 | FC(F)(F)c1cnc(Oc2ccccc2-c2nnc(-c3ccc(Cl)cc3)o2)c(Cl)c1 | inconclusive [inhibitor, single point] | –
24 | Cc1cccc2c(C(=O)n3cccn3)cc(-c3ccccc3Cl)nc12 | inconclusive [inhibitor, partial curve] | –

Row | Structure (SMILES) | Potency | activity change, negative = growth inhibition
25 | CCOC(=O)N1CCc2c(sc(NCc3ccc(N(C)C)cc3)c2C(=O)Nc2ccccc2OCC)C1 | inconclusive [inhibitor, single point] | –
26 | COc1ccc(NC(=O)N2CCCc3cc(C)ccc32)c(OC)c1 | inconclusive [inhibitor, single point] | –
27 | C#CCNC(=O)C1=C[C@@H](c2coc3ccccc3c2=O)C[C@@H](OCc2ccc(CO)cc2)O1 | inconclusive [inhibitor, single point] | –
28 | Nc1ccc2nc(-c3ccc(Cl)cc3)[nH]c2c1 | active: 2.91 µM | –
29 | Cc1cccc(Oc2ccccc2NC(=O)CSCC(=O)Nc2cc(C)on2)c1 | inconclusive [inhibitor, single point] | –
30 | O=C(CSc1nc2ccccc2c(=O)n1-c1ccccc1)c1c[nH]c2ccccc12 | active: 6.51 µM | –
31 | O=C(COC(=O)c1c[nH]c(=O)[nH]c1=O)Nc1ccccc1Br | inactive | –
32 | CN(C)c1nc(-c2cccnc2)nc2ccccc12 | inconclusive [inhibitor, single point] | –
33 | CCOc1ccc(NC(=O)CSc2nncc(=O)[nH]2)cc1 | inconclusive [inhibitor, partial curve] | –
34 | COC(=O)[C@@H]1C[C@@H]2CC[C@@H](O)C[C@@H]2N1Cc1ccc(C(F)(F)F)cc1 | inconclusive [inhibitor, single point] | –
35 | CC(=O)N1c2ccc(S(=O)(=O)N3c4ccccc4CC3C)cc2CC1C (configuration not stated) | inconclusive [inhibitor, single point] | –
36 | CCOc1cc(C(=O)N/N=C\c2cn(CC)nc2C)cc(OCC)c1OCC | inactive | –
37 | NC(=O)Cn1c(=O)n(CCc2ccccc2)c(=O)c2c3c(sc21)CCCC3 | inactive | –
38 | CCc1ccc(NC(=O)c2sc3nc(-c4ccccc4)cn3c2C)cc1 | inconclusive [inhibitor, partial curve] | –
39 | CCc1ccc(S(=O)(=O)Nc2cc3c(cc2C)n(C)c(=O)n3C)cc1 | active: 5.17 µM | –
40 | Cc1ccc(C)c(C(=O)COC(=O)c2ccc(C)c(S(=O)(=O)N3CCOCC3)c2)c1 | inconclusive [inhibitor, single point] | –
41 | Cc1ccccc1CN1CCN(C(=O)c2cccc3ccccc23)CC1 | inconclusive [inhibitor, single point] | –
42 | CC(C)CNS(=O)(=O)c1ccc(S(=O)(=O)N2CCC3(CC2)OCCO3)cc1 | – | inconclusive: -34% [inhibitor]
43 | CCCc1nnc(NS(=O)(=O)c2ccccc2)s1 | – | inconclusive: -31.2% [inhibitor]
44 | COc1ccc(C)cc1NC(=O)CN(C)S(=O)(=O)c1ccc2c(c1)CC(C)N2C(C)=O (configuration not stated) | active: 23.1 µM | –
45 | CC(CCc1ccccc1)NC(=O)Cn1ncc2c3ccccc3n(Cc3cccc(Cl)c3)c2c1=O (configuration not stated) | inconclusive [inhibitor, partial curve] | –
46 | CCN(Cc1ccccc1)C(=O)c1cccc(OC2CCN(C(=O)C3CC3)CC2)c1 | inconclusive [inhibitor, single point] | –
47 | O=C(Cc1cccc2ccccc12)Nc1ccccc1Br | inactive | –
48 | COc1ccc(CN(C(=O)c2ccc(OCC(C)C)cc2)C2CCS(=O)(=O)C2)cc1 (configuration not stated) | active: 11.6 µM | –

Row | Structure (SMILES) | Potency | activity change, negative = growth inhibition
49 | Cc1c(C)c2c(OCC(=O)NCC(=O)NCC(=O)O)cc3c(c2oc1=O)CCC(C)(C)O3 | inconclusive [inhibitor, single point] | –
50 | N#C/C(=C(/O)c1ccc2c(c1)OCO2)c1nc2cc(C(F)(F)F)ccc2s1 | active: 10.3 µM | –
51 | CCCN(CC(=O)Nc1ccccc1Br)CC(=O)Nc1ccc(F)c(F)c1F | inconclusive [inhibitor, single point] | –
52 | COC(=O)Cn1c(O)c(N=NC(=O)CNC(=O)COc2cccc(C)c2)c2ccccc21 | inactive | –
53 | COc1cc(NC(=S)N2CCN(c3ccccn3)CC2)c(OC)cc1Cl | inactive | –
54 | CC1=C(C#N)c2nc(N)c(C#N)c(C)c2/C1=C\c1ccc(-c2ccccc2C(=O)O)o1 | inactive | –
55 | CCOc1ccc(NC(=O)CSc2oc(-c3ccco3)nc2S(=O)(=O)c2ccc(Cl)cc2)cc1 | active: 20.6 µM | –
56 | S=C(Nc1ccc(Br)cc1Cl)NC1CCN(Cc2ccccc2)CC1 | active: 18.4 µM | –
57 | COc1cccc(C2C=C(c3ccc(C)cc3)Nc3c(C(=O)Nc4ccc(F)cc4)cnn32)c1OC (configuration not stated) | inconclusive [inhibitor, single point] | –
58 | COc1cc(C)ccc1OCc1cc(C(=O)N(Cc2nccn2C)C(C)C)no1 | inactive | –
59 | CCOc1ccc(-c2n[nH]c3c2C(c2cccs2)N(c2ccc(Br)cc2)C3=O)cc1 (configuration not stated) | inconclusive [inhibitor, single point] | –
60 | CCCOC(=O)Nc1nc(-c2ccc(C)cc2)c(C)s1 | inactive | –
61 | CCOC(=O)c1cc(-c2ccc(OC)cc2)n(CCC(=O)NC2CCC(C)CC2)c1C (configuration not stated) | active: 16.4 µM | –
62 | c1ccc2c(C[C@@H]3CNCCN3CCCCC3CCCCC3)cccc2c1 | inconclusive [inhibitor, single point] | –
63 | Cc1cccc(C(=O)NCc2nnc(SCC(=O)Nc3ccccc3F)n2-c2ccccc2)c1 | inconclusive [inhibitor, single point] | –
64 | CCc1cccc(-n2nnc(-c3nc(-c4ccc5c(c4)OCO5)no3)c2C)c1 | inconclusive [inhibitor, single point] | –
65 | COc1ccc(OC)c(-n2c(-c3cc(-c4ccc(F)cc4)n[nH]3)n[nH]c2=S)c1 | inconclusive [inhibitor, single point] | –
66 | CCCCOCCCNC(=O)C[C@@H]1C[C@@]2(C(=O)OC)CC(C)(C)CC=C2N(Cc2cccc3ccccc23)C1=O | inconclusive [inhibitor, single point] | –
67 | CCCCC(=O)Nc1ccc2oc(-c3ccncc3)nc2c1 | inactive | –
68 | COc1ccc(C)cc1N(CC(=O)N1CCCCCC1)S(=O)(=O)c1ccccc1 | inconclusive [inhibitor, single point] | –
69 | COc1ccc(Cl)cc1C(=O)NCC(c1ccco1)N1CCCC1 (configuration not stated) | inactive | –
70 | O=C(CCN1CCN(C(c2ccccc2)c2ccccc2)CC1)N/N=C/c1ccc(O)cc1 | inconclusive [inhibitor, single point] | –
71 | CCOC(=O)CNC(=O)CSc1nnc(-c2c[nH]c3ccccc23)n1CC | inactive | –
72 | COCCN(C(=O)CCC(=O)Nc1ccccn1)C(C(=O)NCCC(C)C)c1ccc(F)cc1 (configuration not stated) | inactive | –
